Measurements reported in PubChem BioAssay AID1452 (National Center for Advancing Translational Sciences (NCATS), 2008).
In all, about 150,000 compounds went through this assay and about 190 (0.13%) were called active. Inconclusive means that the source gave no clear call. Such entries were picked first, then a sample of the others. The call rests on the fitted dose curve; in most records, active means well fitted inhibition curve with a large enough effect; inconclusive means small, poorly fitted or top-dose-only effect; inactive means flat fitted curve, though single readings scatter. Potencies of inconclusive entries are doubtful fits and often do not repeat.

molecular target: Polyunsaturated fatty acid lipoxygenase ALOX12 (Homo sapiens) (UniProt P18054); assay: qHTS Assay for Inhibitors of 12-hLO (12-human lipoxygenase); conditions: purified 12-hLO, xylenol orange hydroperoxide absorbance; series mostly up to 57.1 µM; activity change, negative = inhibition: at the top concentration; further: nearly all actives have a fitted effect of over 55% in size
Procedure, shortened: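 150 nM 12hLO, 25 mM Hepes pH 7.0 + 0.01% Triton X-100; cpd preinc 15 min RT; 40 uM arachidonic acid, 30 min RT; Fe-XO 30 min; A573/A405 ratio as read-out.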
On the % scale 0 is the no-effect control and ±100 the full control effect; potency means the concentration at half of the fitted maximal effect; tags describe the fitted curve by direction and shape.

UniProt P18054, sequence (P18054 whole entry, looked up): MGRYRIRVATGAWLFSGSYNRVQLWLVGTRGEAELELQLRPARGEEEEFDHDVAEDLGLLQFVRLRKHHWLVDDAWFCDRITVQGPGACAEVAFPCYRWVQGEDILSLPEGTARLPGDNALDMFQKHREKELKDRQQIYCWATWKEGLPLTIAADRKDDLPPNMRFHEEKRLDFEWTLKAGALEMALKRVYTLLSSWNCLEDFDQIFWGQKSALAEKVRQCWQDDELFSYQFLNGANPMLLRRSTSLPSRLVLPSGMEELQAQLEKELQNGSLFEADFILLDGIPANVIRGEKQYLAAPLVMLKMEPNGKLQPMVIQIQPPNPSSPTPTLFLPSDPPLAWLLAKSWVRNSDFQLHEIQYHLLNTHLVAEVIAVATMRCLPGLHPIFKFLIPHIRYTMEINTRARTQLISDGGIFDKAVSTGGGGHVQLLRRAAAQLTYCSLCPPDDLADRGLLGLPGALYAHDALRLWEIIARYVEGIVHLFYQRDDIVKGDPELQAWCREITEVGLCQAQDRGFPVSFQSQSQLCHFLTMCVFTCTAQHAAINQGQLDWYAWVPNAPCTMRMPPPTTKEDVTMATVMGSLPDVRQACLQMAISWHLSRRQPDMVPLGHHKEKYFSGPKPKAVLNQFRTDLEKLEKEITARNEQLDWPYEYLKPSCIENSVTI

| Compound | Potency | activity change, negative = inhibition |
| --- | --- | --- |
| COc1ccc2nc(N/C(N)=N/C(=S)Nc3cccc(C)c3)nc(C)c2c1 | inconclusive: 25.1 µM [inhibitor, single point] |  |
| COc1ccc(Cl)cc1NC(=O)Nc1cccc([N+](=O)[O-])c1C | inconclusive: 35.5 µM [inhibitor, single point] |  |
| CC(C)c1cc(-c2n[nH]c(=S)n2Cc2ccccc2)cs1 | inconclusive: 28.2 µM [inhibitor, single point] |  |
| Cc1ccc(C(=O)CC(=O)c2cc(Cl)ccc2O)cc1 | inconclusive: 10 µM [inhibitor, partial curve] |  |
| CCC(=O)NCc1cc(-c2nn(C)c(=O)c3ccccc23)ccc1C |  | inactive: 0.216% |
| CCCCc1ccc(NC(=O)CC(C)=O)cc1 |  | inactive: -3.03% |
| Cn1c(=O)c2ncn(CC(=O)NCCC3=CCCCC3)c2n(C)c1=O |  | inactive: 7.01% |
| COC(=O)c1sc(NC(C)=O)c(C(=O)OC)c1C |  | inactive: -1.69% |
| Cc1noc(C)c1COc1cccc(C(=O)Nc2ccc(OCc3ccccc3)cc2)c1 |  | inactive: 0.221% |
| COc1ccc(-c2nnc(SC(=O)N3c4ccccc4Sc4ccccc43)o2)cc1 | active: 14.1 µM |  |
| CCOC(=O)c1c(C)[nH]c(C(=O)CSc2nnc(C3CC3)n2N)c1C |  | inactive: 1.72% |
| Cc1c(C(=O)NC(=S)Nc2ccc(NC(=O)c3cccs3)cc2)oc2ccccc12 | inconclusive: 17.8 µM [inhibitor, partial curve] |  |
| COC(=O)NC(=S)Nc1ccc(Oc2ccc(Cl)cc2Cl)c(Cl)c1 | inconclusive: 17.8 µM [inhibitor, partial curve] |  |
| CCc1cc(C(=O)Cc2cnn(-c3ccccc3)c2)c(O)cc1O | inconclusive: 11.2 µM [inhibitor, partial curve] |  |
| Cc1cc(-c2cc(-c3ccc(Cl)cc3)nc(N)c2C#N)co1 | inconclusive: 17.8 µM [inhibitor, partial curve] |  |
| C=C(C)COc1ccc(-c2[nH]ncc2Oc2ccccc2OC)c(O)c1 | inconclusive: 5.62 µM [inhibitor, partial curve] |  |
| CSCCC(NC(=O)c1ccccc1)C(=O)OCC(=O)Nc1ccc(C)c(Cl)c1 (configuration not stated) | inconclusive: 14.1 µM [inhibitor, partial curve] |  |
| COc1ccc(OC)c(C2C=C(C34CC5CC(CC(C5)C3)C4)NC(=S)N2)c1 (configuration not stated) | active: 7.08 µM |  |
| CCCCCCOC(=O)C(C#N)c1nc2ccccc2nc1N1CCCCC1 (configuration not stated) |  | inactive: -1.15% |
| O=C(CSc1ccc(Cl)cc1)c1ccco1 | inconclusive: 7.08 µM [inhibitor, partial curve] |  |
| O=C(NC(=S)Nc1ccccc1N1CCCC1)c1ccc(-c2cccc([N+](=O)[O-])c2)o1 | inconclusive: 22.4 µM [inhibitor, partial curve] |  |
| Cc1sc(NC(=O)CN(Cc2ccccc2)C(=O)C(C)C)c(C(N)=O)c1C |  | inactive: 1.77% |
| O=c1cc(-c2ccc(O)c(O)c2)oc2cccc(O)c12 | inconclusive: 12.6 µM [inhibitor, partial curve] |  |
| S=C(NCCSCc1ccc(Cl)cc1Cl)Nc1ccccc1 | active: 25.1 µM |  |

| Compound | Potency | activity change, negative = inhibition |
| --- | --- | --- |
| COc1cc(/C=N/NC(N)=S)ccc1OCc1ccc(C)cc1 | inconclusive: 39.8 µM [inhibitor, single point] |  |
| Cc1ccc(-c2cc(C(=O)Nc3cccnc3)c3ccccc3n2)o1 | inconclusive: 22.4 µM [inhibitor, single point] |  |
| COC(=O)c1ccc(NC(=S)NCCc2ccccc2C)cc1 | inconclusive: 28.2 µM [inhibitor, single point] |  |
| O=C1c2c(O)cc(O)cc2O[C@@H](c2ccc(O)c(O)c2)[C@H]1O | inconclusive: 12.6 µM [inhibitor, partial curve] |  |
| O=C(/C=C/c1ccc2c(c1)OCO2)NCCSCc1ccc(Cl)cc1Cl | inconclusive: 10 µM [inhibitor, partial curve] |  |
| Cc1noc(C)c1C(=O)N1CCC2(CCCN(c3ccncc3)C2)CC1 |  | inactive: -1.2% |
| CCc1cc2c(=O)n(Cc3ccco3)c(SCC(=O)N3CCCc4ccccc43)nc2s1 | inconclusive: 20 µM [inhibitor, partial curve] |  |
| FC(F)Oc1ccc(NC(=S)NCc2ccccc2)cc1Cl | inconclusive: 22.4 µM [inhibitor, single point] |  |
| Cc1ccc2oc(=O)c3cnn(CC(=O)N4CCc5ccccc5C4)c3c2c1 | inconclusive: 8.91 µM [inhibitor, single point] |  |
| CCCCN=Cc1sc2ccc(OCC)cc2c1O | inconclusive: 14.1 µM [inhibitor, partial curve] |  |
| COc1ccc(S(=O)(=O)NCC(c2cccnc2)N2CCN(C)CC2)cc1C (configuration not stated) |  | inactive: 1.51% |
| CC(=O)NC(c1ccco1)c1ccc2cccnc2c1O (configuration not stated) | inconclusive: 35.5 µM [inhibitor, single point] |  |
| NC(=S)Nc1cc2ccccc2c2ccccc12 | inconclusive: 28.2 µM [inhibitor, single point] |  |
| Cc1ccc(CN=Cc2[nH]c3ccc(Br)c(Cl)c3c2O)cc1 | inconclusive: 20 µM [inhibitor, single point] |  |
| CCc1cc(-c2n[nH]c(=S)n2C(C)c2ccccc2)cs1 (configuration not stated) | active: 15.8 µM |  |
| COc1ccccc1/C=C\C=N\n1c(-c2ccc(Cl)cc2Cl)n[nH]c1=S | inconclusive: 35.5 µM [inhibitor, single point] |  |
| Cc1cccc(C)c1-n1c(C)cc(/C=N/NC(N)=S)c1C | inconclusive: 31.6 µM [inhibitor, single point] |  |
| NC(=O)c1cnn(Cc2ccc(Cl)cc2)c1N |  | inactive: -4.01% |
| COc1ccc(OC)c(N=c2ssnc2Cl)c1 | active: 8.91 µM |  |
| CC(C)n1cc(/C=C2/SC(=O)N(CC(=O)N3CCCC3)C2=O)c2ccccc21 |  | inactive: 3.67% |
| COc1ccc(O)c(C(=O)CC(=O)c2ccc(F)cc2)c1 | inconclusive: 11.2 µM [inhibitor, partial curve] |  |
| S=C(Nc1ccc(Oc2ccccc2)cc1)NC1CCCCC1 | inconclusive: 35.5 µM [inhibitor, single point] |  |
| C[C@H](CN(C)C)C(O)(c1ccccc1)c1ccccc1 |  | inactive: 2.94% [at 11.4 µM] |
| CC1=C(C(=O)OC(C)C)C(c2cccc([N+](=O)[O-])c2)n2c(cc(=O)[nH]c2=S)N1 (configuration not stated) | inconclusive: 28.2 µM [inhibitor, partial curve] |  |

| Compound | Potency | activity change, negative = inhibition |
| --- | --- | --- |
| COc1ccc(NC(=S)NCC2CCN(c3ccc(OC)cc3)C2)cc1 (configuration not stated) | inconclusive: 28.2 µM [inhibitor, single point] |  |
| Nc1ccc2c(c1)C(=O)C(=O)c1ccccc1-2 | inconclusive: 15.8 µM [inhibitor, partial curve] |  |
| CCCOc1cccc(C(=O)NC(=S)Nc2cccc(C(F)(F)F)c2)c1 | inconclusive: 28.2 µM [inhibitor, partial curve] |  |
| CCCc1nc2ccccc2c(=O)n1/N=C/c1ccc(O)c(O)c1 | inconclusive: 1 µM [inhibitor, partial curve] |  |
| CC/C=C\C/C=C\C/C=C\C/C=C\C/C=C\C/C=C\CCC(=O)NCCc1ccc(O)c(O)c1 | inconclusive: 2 µM [inhibitor, full curve] |  |
| CCCOC(=O)c1ccc(Oc2cn[nH]c2-c2ccc(OC)cc2O)cc1 | inconclusive: 17.8 µM [inhibitor, partial curve] |  |
| O=C(COC(=O)CCSc1ccc(Cl)cc1)NCc1ccccc1 |  | inactive: -2.39% |
| CCOc1cc(-c2c(C#N)c(N)nc3c2CCCC3)ccc1O |  | inactive: -5.66% |
| Fc1ccc(C2CC(c3ccco3)=NN2c2ccccc2)cc1 (configuration not stated) | inconclusive: 7.94 µM [inhibitor, partial curve] |  |
| CC(=O)c1cc(F)c(N2CCN(C(=O)c3ccco3)CC2)cc1C |  | inactive: 6.67% |
| O=S(=O)(Nc1ccc(O)c(Sc2nc3ccccc3s2)c1)c1ccc(Cl)cc1 | inconclusive: 12.6 µM [inhibitor, partial curve] |  |
| Cc1ccc(C2CC2c2n[nH]c(=S)n2-c2cccc(Cl)c2)cc1 (configuration not stated) | inconclusive: 22.4 µM [inhibitor, single point] |  |
| CCOc1cccc(N2C(=O)CC(n3cnc4ccccc43)C2=O)c1 (configuration not stated) |  | inactive: -2.01% |
| CC(C)CNC(=S)NC(=O)c1ccc(Cl)cc1Cl | inconclusive: 3.98 µM [inhibitor, full curve] |  |
| CCNC(=S)Nc1ccc(N(c2ccccc2)C(C)C)cc1 | inconclusive: 20 µM [inhibitor, partial curve] |  |
| N#CCSc1nc2[nH]ncc2c(=O)n1-c1ccccc1Br | inconclusive: 25.1 µM [inhibitor, partial curve] |  |
| Cc1ccccc1NC(=S)NNC(=O)c1csc2c1CCC(C)C2 (configuration not stated) | inconclusive: 22.4 µM [inhibitor, single point] |  |
| COc1ccc(C(=O)N/N=C/c2cc3ccccc3[nH]c2=S)cc1 | active: 17.8 µM |  |
| COc1ccc(OC)c2c(N3CC(C)OC(C)C3)cc(C(F)(F)F)nc12 (configuration not stated) | inconclusive: 7.94 µM [inhibitor, partial curve] |  |
| Cc1ccc(SCc2[nH]nc3c2C(c2ccc(C)o2)C(C#N)=C(N)O3)cc1 (configuration not stated) | inconclusive: 28.2 µM [inhibitor, partial curve] |  |
| Cc1nc(-c2ccccc2)sc1-c1nc(-c2cccnc2)ncc1S(=O)(=O)c1ccccc1 |  | inactive: -6.75% |
| Cc1cc(O)c(NC(=S)NC(=O)c2ccc(-c3ccc(Cl)cc3)o2)cc1C | inconclusive: 10 µM [inhibitor, partial curve] |  |
| CSc1cccc(-n2cc(-c3ccc4c(c3)OCO4)[nH]c2=O)c1 | inconclusive: 1.12 µM [inhibitor, partial curve] |  |
| COc1ccc(C2=NN(CN3C(=O)C(=O)c4ccccc43)C(c3ccc(Br)cc3)C2)cc1 (configuration not stated) |  | inactive: -23.4% |
